{"source": "the supplement of paper PMC11417369", "note": "± gives the standard deviation of the averaged measurements. This is one part of the list."}
{"test_system": "PfAP2-EXP AP2 domain (GST-tagged)", "test": "gcPBM binding intensity (ln(normalized median fluorescence intensity)); higher = stronger DNA binding", "in_short": "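The highest Masliner-normalised natural-log median intensity across replicate spots of either probe orientation is reported as binding intensity. GST-tagged P. falciparum DNA-binding domains expressed in E. coli were applied for 1 h to an Agilent 4 × 180k array of primer-extended double-stranded 36-bp intergenic genomic probes plus negative controls, and bound protein was detected with Alexa488 anti-GST antibody and scanned at 488 nm.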"}
{"sequence": "AAAAAATAGTGGTATGCATGTCCCTTGTATTTTCTT [TGCATGCA_site587]", "gcPBM binding intensity (ln)": "8.56 ± 0.45"}
{"sequence": "TACTTTTATATGAATACACACAGGAATATAAATATG [CACACA_site7647]", "gcPBM binding intensity (ln)": "8.59 ± 0.4"}
{"sequence": "TCCTTACATTTTAAAACACACAAAAATTAATTGTTA [CACACA_site2313]", "gcPBM binding intensity (ln)": "8.33 ± 0.42"}
{"sequence": "TGGATACACAAAAATTAAAAAAATAAACAAACAAAT [GTGCAC_negctrl_site105]", "gcPBM binding intensity (ln)": "8.94 ± 0.47"}
{"sequence": "AAAATACCCATTTTAGTACACACTTAAAAAATTATT [CACACA_site8966]", "gcPBM binding intensity (ln)": "8.23 ± 0.35"}
{"sequence": "AAAAAAAAAAAATGCACACATATATTTCCATATACA [CACACA_site1471]", "gcPBM binding intensity (ln)": "8.32 ± 0.23"}
{"sequence": "TTTAAAATACAGAAGGTGCATTTAACATATTTGTAT", "gcPBM binding intensity (ln)": "8.91 ± 0.26"}
{"sequence": "TATATATATAAACACACACACATATATATATATATA [CACACA_site4584]", "gcPBM binding intensity (ln)": "10.1 ± 0.35"}
{"sequence": "ATATATATATATATATGTACTAATTAATATTTCGAG [XGTACX_site580]", "gcPBM binding intensity (ln)": "10.2 ± 0.47"}
{"sequence": "ACAAAATTTACAAAATGTACAAAATTTACAAAGTAT [XGTACX_site6463]", "gcPBM binding intensity (ln)": "8.43 ± 0.36"}
{"sequence": "GTATATCATATTTCATGTACACAAAAAAATAAAAAT [XGTACX_site704]", "gcPBM binding intensity (ln)": "8.85 ± 0.37"}
{"sequence": "ATATATTTGATAAGAGTGCACAAATACATACATACA [GTGCAC_site9704]", "gcPBM binding intensity (ln)": "9.425 ± 0.092"}
{"sequence": "TATATATATTATATATGTACATATTATATATATATA [XGTACX_site7300]", "gcPBM binding intensity (ln)": "9.46 ± 0.17"}
{"sequence": "GTTTTAACAAAATTAGTGCATTTATCAATTATATAA", "gcPBM binding intensity (ln)": "8.33 ± 0.16"}
{"sequence": "TTTTTTTTTTCAATGGCACACATTTTAGATTTATGC [CACACA_site1074]", "gcPBM binding intensity (ln)": "8.38 ± 0.4"}
{"sequence": "ATAATACTACCTACATGTACTTATATATAAATGAAT [XGTACX_site3417]", "gcPBM binding intensity (ln)": "8.96 ± 0.39"}
{"sequence": "ACATCAAGCGGACACACACACACACCGACAGACACA [CACACA_site4361]", "gcPBM binding intensity (ln)": "8.8 ± 0.4"}
{"sequence": "AAAGAATCAAGAATAGTGCAAATATGTATAACCTTT", "gcPBM binding intensity (ln)": "8.86 ± 0.014"}
{"sequence": "ATAAAATAATGAAAAACACACATTTTTATTTGTATA [CACACA_site3369]", "gcPBM binding intensity (ln)": "8.2 ± 0.43"}
{"sequence": "ATATATATATATGAATCACACACAAAAAATATAGAG [CACACA_site9298]", "gcPBM binding intensity (ln)": "10 ± 0.16"}
{"sequence": "ATTGTTTTTTTTTCTTTGTGGAATGAATGAATATAT [XGTACX_negctrl_site603]", "gcPBM binding intensity (ln)": "8.71 ± 0.6"}
{"sequence": "AAGATTATAAATATATGTACATAAATATATTATATA [XGTACX_site8056]", "gcPBM binding intensity (ln)": "8.44 ± 0.3"}
{"sequence": "AATAACATGTTATATACACACATTATGAAGTCTTCA [CACACA_site746]", "gcPBM binding intensity (ln)": "8.43 ± 0.37"}
{"sequence": "AAAGTATTCTTTACACGTACATATATATAAATATAA [XGTACX_site7557]", "gcPBM binding intensity (ln)": "8.45 ± 0.37"}
{"sequence": "AATATAAATAATATATGTACATATATATATATATAT [XGTACX_site1021]", "gcPBM binding intensity (ln)": "10 ± 0.49"}
{"sequence": "AATATAGATATAAAAAGTACATTATATATATATATA [XGTACX_site6899]", "gcPBM binding intensity (ln)": "10.1 ± 0.49"}
{"sequence": "AGAATTGTTGTTAAAGAATTCTTTTTTATCCTTCCC [CACACA_negctrl_site1820]", "gcPBM binding intensity (ln)": "8.39 ± 0.49"}
{"sequence": "TTTGTATATATTAATGTACACACATGCGTATGTTCG [CACACA_site9193]", "gcPBM binding intensity (ln)": "8.65 ± 0.35"}
{"sequence": "TATACATACCATAATGCATGTAAGAACAAATAACTG [TGCATGCA_site264]", "gcPBM binding intensity (ln)": "8.8 ± 0.35"}
{"sequence": "AAAAAAAAAAAAAAGGTGCATACTTTGAATTAATAT [GTGCAC_site9401]", "gcPBM binding intensity (ln)": "8.825 ± 0.064"}
{"sequence": "ATGACTCTCAAGTTTGCACACATTTATATTTTTTAA [CACACA_site2605]", "gcPBM binding intensity (ln)": "8.85 ± 0.49"}
{"sequence": "TATTTTTTTTCTTATACACACCATGCATCAAACTAA [CACACA_site5208]", "gcPBM binding intensity (ln)": "8.76 ± 0.51"}
{"sequence": "TTTATATATATATATATATATAATAAATGATACACA [TGCATGCA_negctrl_site392]", "gcPBM binding intensity (ln)": "8.47 ± 0.36"}
{"sequence": "TCAAAAATATTCTGGAGTACCTTTTTAAAGGTATAG [XGTACX_site6893]", "gcPBM binding intensity (ln)": "8.17 ± 0.35"}
{"sequence": "TTTGCACCGTTTAAGTGTACAGAATTATGACATATA [XGTACX_site6735]", "gcPBM binding intensity (ln)": "8.79 ± 0.11"}
{"sequence": "ATTGCATATAATGGCACACATAAATCCATAATATAT [CACACA_site297]", "gcPBM binding intensity (ln)": "8.49 ± 0.35"}
{"sequence": "TAAATATATATATACACACACATACACAAAAAAAAA [CACACA_site3580]", "gcPBM binding intensity (ln)": "8.73 ± 0.42"}
{"sequence": "TGTGGTTACATGTGCACACACTTATTTCGTTCTTAT [CACACA_site4907]", "gcPBM binding intensity (ln)": "9.03 ± 0.23"}
{"sequence": "TGTGTTCATCTATGCACACGCATATATATTATTGTT [CACACA_site5985]", "gcPBM binding intensity (ln)": "8.49 ± 0.28"}
{"sequence": "CAAAATTTATGTAAAAGTACAAAAATATAGAAAGAT [XGTACX_site1122]", "gcPBM binding intensity (ln)": "8.99 ± 0.35"}
{"sequence": "TAATCGAAACAAAGAACATGCAAACATATACCTATA [TGCATGCA_site894]", "gcPBM binding intensity (ln)": "8.62 ± 0.14"}
{"sequence": "AATATAATATAAGGATCACACACAAACACCCATATA [CACACA_site8084]", "gcPBM binding intensity (ln)": "8.91 ± 0.61"}
{"sequence": "TTTTATTCCTTCTTTGCACACGTTTAAAAATATATA [CACACA_site2899]", "gcPBM binding intensity (ln)": "9.4 ± 0.36"}
{"sequence": "TAAGTTATATGTATATGTACTTATATATATATATAT [XGTACX_site5402]", "gcPBM binding intensity (ln)": "10.1 ± 0.3"}
{"sequence": "ATTAAAAAAATTAAAAGTACACATATTTCAATGATA [XGTACX_site5606]", "gcPBM binding intensity (ln)": "8.39 ± 0.38"}
